Data: publication PMC9356134
These are yes or no findings as the source states them, for the method shown. In cells and extracts the contact can be indirect. Some results given as binding are weak or reduced against the parent protein; the word gives no strength.

The chains behind the UniProt entries cited, without tags or fusion partners. Where a name states a change or a piece, a line headed by the entry shows the natural chain unless it says otherwise.
UniProt Q93009: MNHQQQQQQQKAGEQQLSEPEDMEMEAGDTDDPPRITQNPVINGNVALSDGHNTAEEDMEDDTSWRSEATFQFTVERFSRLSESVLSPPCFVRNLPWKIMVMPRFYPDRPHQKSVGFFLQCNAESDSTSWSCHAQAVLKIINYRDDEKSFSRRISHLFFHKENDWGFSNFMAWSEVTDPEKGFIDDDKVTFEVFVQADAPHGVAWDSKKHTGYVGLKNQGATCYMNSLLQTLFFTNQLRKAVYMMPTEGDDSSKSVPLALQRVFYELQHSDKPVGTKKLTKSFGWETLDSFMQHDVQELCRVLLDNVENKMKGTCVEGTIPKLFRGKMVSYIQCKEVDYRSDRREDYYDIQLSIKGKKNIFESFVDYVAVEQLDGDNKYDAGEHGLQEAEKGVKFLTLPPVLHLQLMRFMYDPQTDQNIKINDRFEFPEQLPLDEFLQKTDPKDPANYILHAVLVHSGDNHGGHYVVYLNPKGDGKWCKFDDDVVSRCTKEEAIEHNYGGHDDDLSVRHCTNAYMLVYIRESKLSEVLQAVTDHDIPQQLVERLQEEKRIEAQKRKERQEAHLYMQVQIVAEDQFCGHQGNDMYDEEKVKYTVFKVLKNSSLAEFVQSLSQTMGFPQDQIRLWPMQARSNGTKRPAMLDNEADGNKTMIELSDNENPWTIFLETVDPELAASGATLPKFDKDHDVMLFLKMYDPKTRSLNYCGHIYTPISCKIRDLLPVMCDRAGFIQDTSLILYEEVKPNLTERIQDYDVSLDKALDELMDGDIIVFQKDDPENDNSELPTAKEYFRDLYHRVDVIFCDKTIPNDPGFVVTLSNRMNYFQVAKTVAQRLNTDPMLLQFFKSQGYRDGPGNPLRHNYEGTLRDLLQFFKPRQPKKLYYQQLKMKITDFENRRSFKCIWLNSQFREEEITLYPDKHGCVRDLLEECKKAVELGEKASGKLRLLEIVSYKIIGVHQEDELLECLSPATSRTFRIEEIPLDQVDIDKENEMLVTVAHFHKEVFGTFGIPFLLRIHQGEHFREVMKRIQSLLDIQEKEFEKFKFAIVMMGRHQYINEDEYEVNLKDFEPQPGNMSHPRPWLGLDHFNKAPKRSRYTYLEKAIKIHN
UniProt Q9GZV5: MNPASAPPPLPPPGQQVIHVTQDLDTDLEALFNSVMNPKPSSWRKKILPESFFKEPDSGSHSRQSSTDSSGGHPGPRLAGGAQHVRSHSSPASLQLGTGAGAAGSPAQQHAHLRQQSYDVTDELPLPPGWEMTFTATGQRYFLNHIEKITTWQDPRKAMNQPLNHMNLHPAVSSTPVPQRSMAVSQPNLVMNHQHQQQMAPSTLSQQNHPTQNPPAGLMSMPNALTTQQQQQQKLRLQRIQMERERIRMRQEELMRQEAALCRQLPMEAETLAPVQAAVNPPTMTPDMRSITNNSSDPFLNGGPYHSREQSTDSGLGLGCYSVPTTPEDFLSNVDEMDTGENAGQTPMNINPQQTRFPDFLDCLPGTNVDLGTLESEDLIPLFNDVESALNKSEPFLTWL
UniProt Q15561: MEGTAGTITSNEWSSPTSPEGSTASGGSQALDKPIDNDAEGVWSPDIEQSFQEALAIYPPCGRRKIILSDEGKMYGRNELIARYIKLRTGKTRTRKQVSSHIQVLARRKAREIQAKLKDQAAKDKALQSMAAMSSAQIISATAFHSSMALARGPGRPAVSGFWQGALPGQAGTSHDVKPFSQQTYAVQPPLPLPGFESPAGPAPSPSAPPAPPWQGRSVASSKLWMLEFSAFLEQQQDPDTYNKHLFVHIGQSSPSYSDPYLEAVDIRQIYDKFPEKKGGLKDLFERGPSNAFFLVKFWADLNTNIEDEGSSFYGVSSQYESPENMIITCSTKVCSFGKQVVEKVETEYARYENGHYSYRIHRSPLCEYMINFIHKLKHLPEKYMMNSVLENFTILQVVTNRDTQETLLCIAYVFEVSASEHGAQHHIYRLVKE

Legend:
[1] = biological target: Myc-USP7-WT (full-length) (human) (UniProt Q93009); test: co-IP; Flag-TAZ (full-length or truncations) and Myc-USP7 co-expressed in HEK293T; lysates precipitated with anti-Myc antibody, immunoblot with anti-Flag
[2] = biological target: Flag-TAZ (full-length) (human) (UniProt Q9GZV5); test: co-IP; Myc-USP7 (full-length or truncations) and Flag-TAZ co-expressed in HEK293T; lysates precipitated with anti-Flag antibody, immunoblot with anti-Myc
[3] = biological target: ubiquitin-specific protease 7 (USP7), endogenous (human (endogenous in Cal27)) (UniProt Q93009); test: co-IP; endogenous proteins; Cal27 cell lysates precipitated with anti-TAZ or anti-USP7 antibody and Protein A/G Plus Agarose overnight at 4 °C, immunoblot with anti-TAZ/anti-USP7
[4] = biological target: TEAD4, endogenous (human (endogenous in Cal27)) (UniProt Q15561); test: co-IP; Cal27 cells transfected with Myc-USP7^WT or Myc-USP7^C223S for 48 h; whole cell lysates precipitated with anti-TEAD4 antibody, immunoblot with anti-TAZ
[5] = biological target: Transcriptional coactivator with PDZ-binding motif (TAZ), endogenous (human (endogenous in Cal27)) (UniProt Q9GZV5); test: co-IP; endogenous proteins; Cal27 cell lysates precipitated with anti-TAZ or anti-USP7 antibody and Protein A/G Plus Agarose overnight at 4 °C, immunoblot with anti-TAZ/anti-USP7

Substance | binding [1] | binding [2] | also measured
Myc-USP7 (1-208aa) (from UniProt Q93009 1-208) (domain or fragment) | – | binds | –
Flag-TAZ (1-125aa) (from UniProt Q9GZV5 1-125) (domain or fragment) | binds | – | –
Transcriptional coactivator with PDZ-binding motif (TAZ), endogenous (from UniProt Q9GZV5 1-400) | – | – | binding [3]: binds; binding [4]: binds
ubiquitin-specific protease 7 (USP7), endogenous (from UniProt Q93009 1-1102) (enzyme) | – | – | binding [5]: binds
Myc-USP7 (560-1102aa) (from UniProt Q93009 560-1102) (domain or fragment) | – | no binding | –

Further lines, with some results ahead:

binding [1] | binding [2] | Substance | also measured
binds | – | Flag-TAZ (270-400aa) (from UniProt Q9GZV5 270-400) (domain or fragment) | –
binds | – | Flag-TAZ (125-270aa) (from UniProt Q9GZV5 125-270) (domain or fragment) | –
– | no binding | Myc-USP7 (208-560aa) (from UniProt Q93009 208-560) (domain or fragment) | –
